The full ranking holds about 33,000 sequences; the median of “E-score (-0.5 to 0.5)” is about -0.056, and the highest 2% start at about 0.38. The list shows a part of the results.
target: Stb4 (UniProt P50104); assay: PBM E-score (8-mer binding enrichment) (E-score (-0.5 to 0.5)); higher = stronger / more preferred TF binding; most listed sequences are background and not binding sites; details: protein concentration: 200 nM; construct: GST-DNA-binding domain
Protocol: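 Universal 'all 10-mer' protein binding microarrays (Agilent AMADID 015681) probed with GST-tagged S. cerevisiae TFs (full-length or DBD) made by in vitro transcription/translation (PURExpress), about 100-200 nM. Bound TF was detected with fluorescent anti-GST. Each ungapped 8-mer (which stands for itself and its reverse complement) is scored by the PBM enrichment score (E-score), a modified Wilcoxon-Mann-Whitney statistic from -0.5 to +0.5, computed with the Universal PBM Analysis Suite. Scale: above 0.35 generally sequence-specific binding.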

| Sequence | PBM E-score |
| --- | --- |
| GCAGACGC | -0.152 |
| AAGGGGTC | -0.176 |
| GAGGTACA | -0.00397 |
| AACTGAAT | -0.136 |
| GCCTCCCC | -0.137 |
| CTCGTCGA | -0.232 |
| CTATTCGC | -0.122 |
| GTAATCAA | -0.0759 |
| AGTCCTGC | -0.0324 |
| CTGAGCAC | -0.205 |
| CCCCCTGC | -0.213 |
| CGGCAAGC | 0.326 |
| CCGCACAG | 0.0446 |
| ATTCATAA | 0.0701 |
| CTCGTGCC | -0.0865 |
| AGGCAATG | -0.227 |
| CCCTGGCG | -0.122 |
| CTGCTGGA | -0.292 |
| CCATGACA | -0.245 |
| ACAAGCCA | -0.231 |
| CAGTATCG | 0.0558 |
| ATAAACTC | 0.105 |
| ACCTATTA | -0.0753 |
| CAACTTGG | -0.143 |
| AGGGTGAG | -0.239 |

| Sequence | PBM E-score |
| --- | --- |
| AGAGTACT | -0.224 |
| CGACATTC | -0.0162 |
| ATATCCTC | -0.03 |
| AGGGTGAC | 0.0346 |
| CTATATCC | 0.227 |
| GACCTTAA | -0.145 |
| CTCTGGCC | -0.0565 |
| ATGATACG | 0.0744 |
| GTGACCAA | -0.203 |
| GAAGTCCC | 0.028 |
| GACGGGAA | 0.208 |
| AGATTTCG | 0.15 |
| CATTTCTA | 0.0529 |
| AGAGTTGA | -0.0567 |
| GAACCCAC | 0.113 |
| TGTACCAA | -0.195 |
| ACCGGCCG | 0.281 |
| AATCAATT | 0.0361 |
| AGGCACTA | -0.165 |
| AGGATACC | 0.0351 |
| ATACGTCC | -0.00745 |
| AGCTAGCG | -0.069 |
| AGTTTAGA | 0.087 |
| CCTATAAG | -0.275 |
| AGGTGGAA | -0.0313 |

| Sequence | PBM E-score |
| --- | --- |
| ACAGATCC | 0.338 |
| ACAAGTCG | -0.0915 |
| AAACACGT | -0.0853 |
| ATTGGCTA | -0.0463 |
| GTAACGTA | -0.192 |
| CTTTATCC | 0.225 |
| CTCGGCAA | 0.458 |
| ACCGAAGA | 0.359 |
| CAAGCAAC | -0.12 |
| AATTCTAG | -0.094 |
| CTTGTTCA | -0.148 |
| CCGTACGG | 0.162 |
| AAAGTATA | -0.133 |
| ACAGTGGG | 0.0192 |
| ATAACGAA | -0.0854 |
| CAAGGTTA | -0.00332 |
| CAGACCAA | -0.144 |
| ACCTCCGC | 0.108 |
| CAAGCACA | -0.318 |
| AATAATTG | -0.0587 |
| AGCGACCG | 0.117 |
| AACGGCGG | 0.121 |
| CAACAGGG | -0.116 |
| GAATTAGC | 0.00945 |
| AGAAGTAC | -0.146 |

| Sequence | PBM E-score |
| --- | --- |
| AAAGTAAT | 0.137 |
| GAGATCAC | -0.0747 |
| TGCGCAAA | -0.119 |
| AACACACA | -0.0643 |
| TCACAGCA | -0.191 |
| GTCGTGAA | -0.19 |
| TGCCAGCA | -0.0908 |
| GCGGTACC | 0.235 |
| CCAGAAAA | -0.108 |
| CTAATGAC | -0.34 |
| CCGTGGTA | 0.0351 |
| AACGGCCC | 0.0486 |
| CATCATAA | -0.0845 |
| CCGATAGA | 0.249 |
| CAACAACG | -0.326 |
| CCTTTAGA | -0.232 |
| CAGTAAAA | -0.0182 |
| ACGGTATC | 0.0325 |
| ATCGTGAA | 0.0212 |
| TAAGAATA | -0.127 |
| ATGCGTCG | -0.0379 |
| ACAGAGTG | -0.233 |
| AGAATAAA | -0.194 |
| GTGCCTAA | -0.266 |
| AATGATAT | -0.134 |

| Sequence | PBM E-score |
| --- | --- |
| AGGGACAT | -0.0773 |
| GACGGCTA | 0.168 |
| GCAATAGC | 0.0437 |
| ATCAGTAA | -0.0124 |
| CGCAATGA | -0.17 |
| CTTCTTCA | -0.288 |
| GGTCGACC | 0.309 |
| CATGCCCG | 0.244 |
| GCAAAATA | 0.0575 |
| CTTACTGC | 0.00974 |
| GTTATCAA | -0.117 |
| GCGACGTA | -0.0957 |
| ACCGCGAA | 0.0995 |
| CATACCCC | 0.0861 |
| CCAATAAC | -0.0398 |
| CAAGCTTC | -0.104 |
| ACGGAACA | 0.326 |
| ACCGGCTG | 0.174 |
| ATGATGGA | 0.0187 |
| ATCGATCG | -0.146 |
| AATAGCTC | -0.159 |
| CGACACGC | 0.0369 |
| GGTCATAC | -0.00835 |
| GCCCCTCA | -0.00939 |
| AACGTGAA | -0.148 |

| Sequence | PBM E-score |
| --- | --- |
| ATCAGCGA | -0.0379 |
| CTTATGGA | -0.0602 |
| AAAGCGCG | -0.00999 |
| AAGTCTGC | -0.241 |
| TGTTTCAA | -0.0915 |
| ATTTCCGA | 0.47 |
| CTAGACCC | -0.0629 |
| GCAATATA | -0.035 |
| AACAAAGA | -0.0512 |
| AAACAGCA | 0.0525 |
| CTGTGCGA | -0.289 |
| CTGGAGTA | -0.239 |
| CAGGCTGG | -0.16 |
| CTAATCCC | 0.00624 |
| AAGCACAC | -0.171 |
| CTATCGGA | 0.423 |
| ATCCCGGC | 0.323 |
| AAACCTCC | -0.00783 |
| AGTTCTGC | -0.064 |
| ACTAATAA | -0.107 |
| CGCGTACG | 0.123 |
| ATGGGCTC | -0.185 |
| ACTCCGAT | 0.242 |
| CGATCTAG | -0.164 |
| AGACCTTG | -0.312 |

| Sequence | PBM E-score |
| --- | --- |
| CGTGAGTC | -0.168 |
| GCTACGGA | 0.17 |
| CAACACGC | -0.0694 |
| CGCCCATC | -0.0172 |
| AGACTTCG | -0.113 |
| ACCCCCAA | -0.224 |
| ACGCCTAA | -0.146 |
| AACTGGAG | -0.0545 |
| ATAGAAAC | 0.0344 |
| CCGGTACC | 0.268 |
| AACGTATC | -0.144 |
| AGGTCTGC | -0.213 |
| GTAACGGA | 0.281 |
| AAGAGCTT | -0.00466 |
| GTAAGGAC | 0.0178 |
| ACAGGACG | -0.225 |
| GTTTAAAC | 0.193 |
| CTGCGCCA | -0.0674 |
| AACTTCGC | -0.041 |
| TGTCCGAA | 0.35 |
| AGGTTGAG | -0.325 |
| ATAATGAC | 0.00969 |

— the supplement of paper PMC3334620
